Source: article doi:10.1101/2025.03.27.645651 (bioRxiv, 2025)

Target: the molecule itself
Test: SEC-SAXS

B1: G3BP1 NTF2LA (NTF2L and the adjacent IDR1 region, […]) (domain or fragment)
chain: not shown
Question: Does B1 bind?
Answer: Result: binds
